# Results as given in patent publication US12653914B2, “Compounds for fast and efficient click release” (priority 2019, dated 2026).
# B1: girentuximab-1.25: mAb girentuximab functionalized with 1.25 via reduced hinge and maleimide; radiolabeled with ^111In (conjugate, chains of the INN, looked up)
# heavy: DVKLVESGGGLVKLGGSLKLSCAASGFTFSNYYMSWVRQTPEKRLELVAAINSDGGITYYLDTVKGRFTISRDNAKNTLYLQMSSLKSEDTALFYCARHRSGYFSMDYWGQGTSVTVSS[omitted - human IgG1 constant region]
# light: DIVMTQSQRFMSTTVGDRVSITCKASQNVVSAVAWYQQKPGQSPKLLIYSASNRYTGVPDRFTGSGSGTDFTLTISNMQSEDLADFFCQQYSNYPWTFGGGTKLEIKRTVAAPSVFIFPPSDEQLKSGTASVVCLLNNFYPREAKVQWKVDNALQSGNSQESVTEQDSKDSTYSLSSTLTLSKADYEKHKVYACEVTHQGLSSPVTKSFNRGEC
# modifications: conjugated with 1.25; 111In radiolabel
# notes: radiolabeled with ^111In
# Assay: Label release from radiolabeled mAb-conjugated TCO triggers in vitro, SEC with radioactivity detector
# Conditions: activator 2.4 (ca. 30 eq); PBS 37° C., 15-24 h; radiolabeled conjugate (^89Zr or ^111In)
# Experimental: mAb conjugate radiolabeled with ^111In and ^89Z (ca. 10 μg) was incubated with an excess (ca. 30 eq) of activator or without activator in 100 μL PBS at 37° C. After 15-24 h incubation the mixtures were analyzed by SEC with radioactivity detector and the amount of released Label was quantified.
molecule,measurement,value
B1,release (%),93.7%
